Molecular target: GST-649-SNAP-IQGAP1 (GST-SNAP-IQGAP1-6His, full length, labelled with SNAP-surface 649) (human), P46940
Assay: single-molecule step photobleaching
Details: remark: other sources report otherwise

B1: GST-649-SNAP-IQGAP1 (GST-SNAP-IQGAP1-6His, full length, labelled with SNAP-surface 649) (natural protein)
chain: [letters of about 200 residues not shown]YGIQMPAFSKIGGILANELSVDEAALHAAVIAINEAIDRRIPADTFAALKNPNAMLVNLEEPLASTYQDILYQAKQDKMTNAKNRTENSERERDVYEELLTQAEIQGNINKVNTFSALANIDLALEQGDALALFRALQSPALGLRGLQQQNSDWYLKQLLSDKQQKRQSGQTDPLQKEELQSGVDAANSAAQQYQRRLAAVALINAAIQKGVAEKTVLELMNPEAQLPQVYPFAADLYQKELATLQRQSPEHNLTHPELSVAVEMLSSVALINRALESGDVNTVWKQLSSSVTGLTNIEEENCQRYLDELMKLKAQAHAENNEFITWNDIQACVDHVNLVVQEEHERILAIGLINEALDEGDAQKTLQALQIPAAKLEGVLAEVAQHYQDTLIRAKREKAQEIQDESAVLWLDEIQGGIWQSNKDTQEAQKFALGIFAINEAVESGDVGKTLSALRSPDVGLYGVIPECGETYHSDLAEAKKKKLAVGDNNSKWVKHWVKGGYYYYHNLETQEGGWDEPPNFVQNSMQLSREEIQSSISGVTAAYNREQLWLANEGLITRLQARCRGYLVRQEFRSRMNFLKKQIPAITCIQSQWRGYKQKKAYQDRLAYLRSHKDEVVKIQSLARMHQARKRYRDRLQYFRDHINDIIKIQAFIRANKARDDYKTLINAEDPPMVVVRKFVHLLDQSDQDFQEELDLMKMREEVITLIRSNQQLENDLNLMDIKIGLLVKNKITLQDVVSHSKKLTKKNKEQLSDMMMINKQKGGLKALSKEKREKLEAYQHLFYLLQTNPTYLAKLIFQMPQNKSTKFMDSVIFTLYNYASNQREEYLLLRLFKTALQEEIKSKVDQIQEIVTGNPTVIKMVVSFNRGARGQNALRQILAPVVKEIMDDKSLNIKTDPVDIYKSWVNQMESQTGEASKLPYDVTPEQALAHEEVKTRLDSSIRNMRAVTDKFLSAIVSSVDKIPYGMRFIAKVLKDSLHEKFPDAGEDELLKIIGNLLYYRYMNPAIVAPDAFDIIDLSAGGQLTTDQRRNLGSIAKMLQHAASNKMFLGDNAHLSIINEYLSQSYQKFRRFFQTACDVPELQDKFNVDEYSDLVTLTKPVIYISIGEIINTHTLLLDHQDAIAPEHNDPIHELLDDLGEVPTIESLIGESSGNLNDPNKEALAKTEVSLTLTNKFDVPGDENAEMDARTILLNTKRLIVDVIRFQPGETLTEILETPATSEQEAEHQRAMQRRAIRDAKTPDKMKKSKSVKEDSNLTLQEKKEKIQTGLKKLTELGTVDPKNKYQELINDIARDIRNQRRYRQRRKAELVKLQQTYAALNSKATFYGEQVDYYKSYIKTCLDNLASKGKVSKKPREMKGKKSKKISLKYTAARLHEKGVLLEIEDLQVNQFKNVIFEISPTEEVGDFEVKAKFMGVQMETFMLHYQDLLQLQYEGVAVMKLFDRAKVNVNLLIFLLNKKFYGK
  stoichiometry N: 2
